This data set deals with the molecule itself. Nature of the data set: crystal structure; pro-myostatin and 29H4-16 Fab mixed 1:1, complex purified by SEC; sitting drop, 0.1 M Na citrate pH 5.5, 20% PEG 3350, 15% 2-propanol, 3% trimethylamine N-oxide; 2.79 Å, P212121.

B1: pro-myostatin (uncleavable precursor, D99A/R263A/R266A) (natural protein)
chain: not shown
notes: human myostatin (GDF8), […] (prodomain and growth factor), tolloid and furin cleavage sites mutated; a tobacco etch virus protease site stands between the His6 tag and residue 24; disulfide-linked homodimer; Signal peptide of the mouse IgG heavy chain in the construct (secreted); also called proGDF8; myostatin precursor; source: with kifunensine for crystallography
With B1, the “stoichiometry N” value came out at 2.

(Values after PMC7170532, “Structural basis of specific inhibition of extracellular activation of pro- or latent myostatin by the monoclonal antibody SRK-015” (The Journal of Biological Chemistry, 2020).)
